Laboratory results reported in the BET-seq Pho4 binding data (Le et al. 2018).
This is one part of the list. The energies were worked out here from pooled read counts, against the library average; single values are noisy.

molecular target: T1, Pho4 (S. cerevisiae) (UniProt P07270); test: relative binding free energy (BET-seq); higher = weaker binding; conditions: reference: library average
T1 sequence: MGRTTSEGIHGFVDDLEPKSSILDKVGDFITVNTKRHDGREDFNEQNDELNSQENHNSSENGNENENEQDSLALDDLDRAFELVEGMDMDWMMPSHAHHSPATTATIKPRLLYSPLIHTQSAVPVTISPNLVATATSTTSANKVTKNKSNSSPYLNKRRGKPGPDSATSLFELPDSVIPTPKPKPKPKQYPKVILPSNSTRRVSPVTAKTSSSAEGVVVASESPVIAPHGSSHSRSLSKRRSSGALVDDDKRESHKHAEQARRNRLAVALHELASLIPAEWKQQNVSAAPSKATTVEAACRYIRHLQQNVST

Relative binding free energy, 0.4 kcal/mol:
GGGTTCACGTGCGGCA
TTGTTCACGTGCTGGC
GATTACACGTGATTAT

Relative binding free energy, 0.39 kcal/mol:
ATGTTCACGTGAGATT

Relative binding free energy, 0.43 kcal/mol:
GGTTGCACGTGAAGGA

Relative binding free energy, -0.04 kcal/mol:
TATAGCACGTGGAATG
GTTACCACGTGCGGTT

Relative binding free energy, 0.34 kcal/mol:
GCTGTCACGTGAGGTA

Relative binding free energy, 0.15 kcal/mol:
TGAATCACGTGCGGAG
GTAGACACGTGTCTTT
AGCATCACGTGTTGAT
CGGTTCACGTGGCGGG

Relative binding free energy, 0.02 kcal/mol:
TATTACACGTGGTGGA
TTCAACACGTGGATGG
TTGGGCACGTGATGTA
CAGTGCACGTGGTGAC
TATTGCACGTGTCTTG

Relative binding free energy, -0.11 kcal/mol:
AGATACACGTGGGGCA
CGGGTCACGTGGCTTG
CGGGGCACGTGGCCGA

Relative binding free energy, 0.32 kcal/mol:
TGTACCACGTGAGTAT
TAATTCACGTGATAGT
AAGGTCACGTGTCAGA

Relative binding free energy, 0.42 kcal/mol:
GGATTCACGTGTTTAC
GGGTTCACGTGATTAA

Relative binding free energy, -0.03 kcal/mol:
CTGTCCACGTGTGGTT
ATTCGCACGTGTTGTT
TAGTGCACGTGCTTGT

Relative binding free energy, 0.26 kcal/mol:
GTAATCACGTGCGGGA
AATCACACGTGTAGGG
GTAGTCACGTGTTATG

Relative binding free energy, -0.09 kcal/mol:
CAGGACACGTGGGGTT
AAGGGCACGTGTCTGG
TGTGCCACGTGGGAAA
TTTGGCACGTGTAGAA

Relative binding free energy, -0.13 kcal/mol:
TAGGGCACGTGGATGA

Relative binding free energy, 0.27 kcal/mol:
GGAGTCACGTGGAATA
GGCTTCACGTGTTGTT

Relative binding free energy, 0.03 kcal/mol:
TATGTCACGTGGTACG
ATGTGCACGTGTACAG
TTATGCACGTGTAATT
GTAGCCACGTGATGTG
ATTTGCACGTGTCGTT
GGGTACACGTGTCTTT
GTTCGCACGTGTTATT
TGCGCCACGTGTTGGT

Relative binding free energy, 0.12 kcal/mol:
GGCGTCACGTGTTGGT
GCATGCACGTGTAGGT
AGGAACACGTGGAAGT
TTGGTCACGTGCATTA

Relative binding free energy, 0.29 kcal/mol:
TATGTCACGTGATGTC
TTGTTCACGTGGGTTT
TGACTCACGTGTGAGT

Relative binding free energy, 0.31 kcal/mol:
GGTAACACGTGAGTGG
TTGTTCACGTGTTGTT
AATCTCACGTGGTGGT

Relative binding free energy, -0.16 kcal/mol:
ATAAACACGTGGTAGT
AATGGCACGTGGTCGT
TGCCGCACGTGGTAGG
TCTGGCACGTGTGGGG

Relative binding free energy, 0.1 kcal/mol:
TTAATCACGTGTTAGC
TAGGTCACGTGGGAAT
ATCGGCACGTGATGAG
AGGCACACGTGATGGT

Relative binding free energy, 0 kcal/mol:
TGGGACACGTGTAAGG
GGCGGCACGTGGACGG
AAATGCACGTGTTTAT
TATGACACGTGGTTTT
GTGGACACGTGCGGGC

Relative binding free energy, 0.17 kcal/mol:
TATTCCACGTGGGAAT
TTGGTCACGTGTACGA
CAGTGCACGTGATATT
AGATTCACGTGCATGT
TGGGGCACGTGAATTC
TTATGCACGTGTATGC

Relative binding free energy, -0.02 kcal/mol:
ATAATCACGTGGTGTG
TCGAGCACGTGGGAGA
TTAGTCACGTGGATCG
GTGAACACGTGTAGAG
TATGGCACGTGGATAT

Relative binding free energy, -0.19 kcal/mol:
GGCGGCACGTGGGTAG
AGAGGCACGTGGTCGC
CGTAGCACGTGGTTCG
TGAAGCACGTGTGGTT

Relative binding free energy, 0.21 kcal/mol:
GGAGGCACGTGAAATT
TTCCTCACGTGGGGGC
TAGCTCACGTGAAGTG

Relative binding free energy, -0.21 kcal/mol:
ATTGGCACGTGCGAGT

Relative binding free energy, -0.15 kcal/mol:
TATGGCACGTGGCTGA

Relative binding free energy, -0.27 kcal/mol:
TAAGGCACGTGTTGTC

Relative binding free energy, -0.28 kcal/mol:
TGTGGCACGTGGGCGC

Relative binding free energy, 0.35 kcal/mol:
TTTTTCACGTGTTGAG
CGTTTCACGTGTACAT
TATCTCACGTGAGGTA
AGGGTCACGTGAGAGT
TGATTCACGTGATTGT
CGTTTCACGTGAGTAT

Relative binding free energy, 0.09 kcal/mol:
GAAGGCACGTGTAAGT
TTAGTCACGTGTGTAG
TTTGTCACGTGGATCA
ACGATCACGTGGTGTG

Relative binding free energy, -0.12 kcal/mol:
ACGAGCACGTGGTGGG

Relative binding free energy, 0.06 kcal/mol:
AGGAACACGTGCGGGC
TTGACCACGTGTTGGC
TAGATCACGTGGTTAA
GTAGACACGTGTTTAT
ATGATCACGTGGAGTG
TTGAACACGTGTGAAG

Relative binding free energy, 0.01 kcal/mol:
GGAATCACGTGGTCTG
CGAATCACGTGGGGGT
GAATGCACGTGTTATG
AGTGCCACGTGAGCGG
AGTGGCACGTGGAGAA
TGTTACACGTGTTCTG
TATTGCACGTGATATG
TTTTACACGTGCCTGT
AGTTGCACGTGGATTG
TGTAGCACGTGTAATA

Relative binding free energy, -0.07 kcal/mol:
TGACGCACGTGGTGGA
GTTGACACGTGGGGCT
CTAGACACGTGGTTGG
GTTGGCACGTGCTATA
ATTGACACGTGGAGGT

Relative binding free energy, 0.13 kcal/mol:
GCTGTCACGTGTGGCA
GGTTACACGTGGCATT
TGCATCACGTGGTTTG
GAGGTCACGTGTTAGT
TTTATCACGTGTATAA

Relative binding free energy, 0.18 kcal/mol:
GGGGACACGTGACTTG
GTAGTCACGTGGAGGC
GTGAACACGTGTAAGG

Relative binding free energy, 0.11 kcal/mol:
TTATACACGTGTTAGT
CAGGTCACGTGTTCTG
TGCTACACGTGCGGGT
AGATACACGTGTGGAA
TGTTGCACGTGTCCAG
TGCGTCACGTGTTTGG
GGGTGCACGTGTAAGC
CTGGGCACGTGAAGAT

Relative binding free energy, -0.08 kcal/mol:
TGTGTCACGTGGGTTA
CGCGGCACGTGGGTCA
TAAAGCACGTGTATAG
GCTCGCACGTGTGGTG
TCGTGCACGTGTATTA
TATGACACGTGCGGTA

Relative binding free energy, 0.23 kcal/mol:
ATTTACACGTGTACAG
TAGGCCACGTGAATGG

Relative binding free energy, 0.16 kcal/mol:
TTATTCACGTGGAGGA
CTATTCACGTGTATTG

Relative binding free energy, 0.05 kcal/mol:
GATAGCACGTGGTTCG
GGCGGCACGTGATGAT

Relative binding free energy, 0.08 kcal/mol:
TCGGGCACGTGAAATG
GTACACACGTGTGGGA
TTACGCACGTGACGGG
GGGTGCACGTGTGGTG
GGGAACACGTGTGTTG

Relative binding free energy, 0.14 kcal/mol:
TTATACACGTGTGGTG
TGTTGCACGTGAGACT
TTGTACACGTGGAGGC
GGATACACGTGGTCGT
TTAATCACGTGTTACG

Relative binding free energy, 0.37 kcal/mol:
CCTTTCACGTGGTTGT

Relative binding free energy, -0.34 kcal/mol:
TAGGGCACGTGGCGGC

Relative binding free energy, 0.36 kcal/mol:
CTTTTCACGTGGAGGA
TAATTCACGTGACGGG

Relative binding free energy, -0.05 kcal/mol:
ATTGACACGTGCAGGG
AAGCGCACGTGTGTTT
TATGGCACGTGTGGCT

Relative binding free energy, 0.28 kcal/mol:
GGTAACACGTGTAGAT
TTGTTCACGTGGGAGG
GTTCACACGTGATGGG
GATTACACGTGTAGCT
GATTCCACGTGATAGG
GGTTGCACGTGAAATA

Relative binding free energy, 0.22 kcal/mol:
TTTTTCACGTGGCTAT
GGGGTCACGTGTGGTC
AATGACACGTGGAATG
GGCATCACGTGTTATG
GGTGTCACGTGTATCG

Relative binding free energy, -0.01 kcal/mol:
TTGCGCACGTGATATT
GTTGACACGTGGTCAT
CAGCTCACGTGGGGTG
TTAGACACGTGGGATA
TAAGTCACGTGTGAGG
CAGGTCACGTGGGTGT

Relative binding free energy, -0.2 kcal/mol:
TGGTGCACGTGGGCCA
TTAACCACGTGGGAGG

Relative binding free energy, -0.17 kcal/mol:
TTTGGCACGTGACCGT
AGCAGCACGTGTTGTT

Relative binding free energy, 0.2 kcal/mol:
GTTGCCACGTGTGATA
TTGGTCACGTGGTCTC
GAGATCACGTGTGTTA
AGATTCACGTGTGTGT
TTATTCACGTGGTTTG

Relative binding free energy, 0.24 kcal/mol:
GTTTCCACGTGTGATA
AAGGTCACGTGTAACG
GACTTCACGTGTTGGA

Relative binding free energy, -0.18 kcal/mol:
CGTTGCACGTGGGGTC
CTTAACACGTGTTTTG

Relative binding free energy, 0.25 kcal/mol:
TTTTACACGTGACGGA
TTGTACACGTGACGTT
TGTGTCACGTGTTTCC

Relative binding free energy, -0.22 kcal/mol:
TTGTGCACGTGGTCTA
ACTGACACGTGGGTGG

Relative binding free energy, -0.14 kcal/mol:
TTGCGCACGTGGGAGG
TTTGACACGTGGGGGT
GTTGGCACGTGGTTAA

Relative binding free energy, 0.07 kcal/mol:
TTTGTCACGTGTGCGC
GGTCACACGTGATGTT
GGATGCACGTGACGGT

Relative binding free energy, 0.19 kcal/mol:
TGGGACACGTGATGTT
GTAGACACGTGAGGGA
TGGGGCACGTGAGGCC
GTGTTCACGTGTCTGA

Relative binding free energy, -0.06 kcal/mol:
AGTACCACGTGTTGGT
TGCTGCACGTGGTAAT
ATTAGCACGTGGACGG
TTTATCACGTGGGTCA

Relative binding free energy, 0.53 kcal/mol:
CGCTTCACGTGAAGTT

Relative binding free energy, -0.24 kcal/mol:
ATGAGCACGTGGGTAG

Relative binding free energy, -0.25 kcal/mol:
ATATGCACGTGGGGCA

Relative binding free energy, -0.33 kcal/mol:
AAAGGCACGTGGGGTA
AAGAGCACGTGGTTAT

Relative binding free energy, 0.04 kcal/mol:
AAGGTCACGTGTAGGG
TTTGTCACGTGTTAGA
TGGAACACGTGGGCGA
TCAGACACGTGTGGGT
TGTACCACGTGTCGGG
GTGGACACGTGGGAAG

Relative binding free energy, 0.3 kcal/mol:
TCTTTCACGTGCTAGG
